Test results published in the supplement of paper PMC8512760.
This is one part of the list. Most values come without repeats; read them as rough.

Legend:
Test in all cases: cell viability relative to vehicle (% of vehicle); basal-like triple-negative breast cancer lines; higher = less cytotoxic
Conditions in all cases: 10 µM; 72 h
HCC-1143 = tested on: HCC-1143
HCC-1187 = tested on: HCC-1187
MDA-468 = tested on: MDA-468
SUM-149 = tested on: SUM-149
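Note: stably firefly luciferase-GFP labeled cells in 96-well plates, viability read as luciferase photon flux after d-luciferin addition, treated wells normalized to vehicle wells, single-dose high-throughput screen.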

Structure (SMILES): COc1cc(Nc2nc3ccccc3nc2NS(=O)(=O)c2ccc(NC(=O)c3ccc(C)c(OC)c3)cc2)cc(OC)c1
- cell viability (HCC-1143): 86.6
- cell viability (HCC-1187): 133
- cell viability (MDA-468): 74.2
- cell viability (SUM-149): 88.2

Structure (SMILES): O=C1Nc2ccc(Cl)cc2C(C#CC2CC2)(C(F)(F)F)O1 (stereo not drawn) [Efavirenz]
- cell viability (HCC-1143): 86.9
- cell viability (HCC-1187): 85.9
- cell viability (MDA-468): 134
- cell viability (SUM-149): 122

Structure (SMILES): O=C1CCC(N2C(=O)c3ccccc3C2=O)C(=O)N1 (stereo not drawn) [Thalidomide]
- cell viability (HCC-1143): 93
- cell viability (HCC-1187): 75.9
- cell viability (MDA-468): 87.3
- cell viability (SUM-149): 107

Structure (SMILES): COc1cc(NC(C)CCCN)c2ncccc2c1.O=P(O)(O)O.O=P(O)(O)O (stereo not drawn) [Primaquine Diphosphate]
- cell viability (HCC-1143): 73.2
- cell viability (HCC-1187): 66
- cell viability (MDA-468): 78.8
- cell viability (SUM-149): 106

Structure (SMILES): CC1(O)CC(c2nc(-c3ccc4ccc(-c5ccccc5)nc4c3)c3c(N)nccn23)C1 (stereo not drawn) [Linsitinib]
- cell viability (HCC-1143): 75.8
- cell viability (HCC-1187): 104
- cell viability (MDA-468): 124
- cell viability (SUM-149): 89.4

Structure (SMILES): Cc1nc(C(=O)NCC(=O)O)c(O)c2ccc(Oc3ccccc3)cc12
- cell viability (HCC-1143): 87.9
- cell viability (HCC-1187): 87.4
- cell viability (MDA-468): 101
- cell viability (SUM-149): 132

Structure (SMILES): CCCCCOC(=O)Nc1nc(=O)n(C2OC(C)C(O)C2O)cc1F (stereo not drawn) [Capecitabine]
- cell viability (HCC-1143): 109
- cell viability (HCC-1187): 107
- cell viability (MDA-468): 118
- cell viability (SUM-149): 105
